# Assay results: the supplement of paper PMC3334620
# The full ranking holds about 33,000 sequences; the median of “E-score (-0.5 to 0.5)” is about -0.041, and the highest 2% start at about 0.37. The list shows a part of the results.
# Biological target: T1, Ecm22 (UniProt Q05958)
# T1 sequence: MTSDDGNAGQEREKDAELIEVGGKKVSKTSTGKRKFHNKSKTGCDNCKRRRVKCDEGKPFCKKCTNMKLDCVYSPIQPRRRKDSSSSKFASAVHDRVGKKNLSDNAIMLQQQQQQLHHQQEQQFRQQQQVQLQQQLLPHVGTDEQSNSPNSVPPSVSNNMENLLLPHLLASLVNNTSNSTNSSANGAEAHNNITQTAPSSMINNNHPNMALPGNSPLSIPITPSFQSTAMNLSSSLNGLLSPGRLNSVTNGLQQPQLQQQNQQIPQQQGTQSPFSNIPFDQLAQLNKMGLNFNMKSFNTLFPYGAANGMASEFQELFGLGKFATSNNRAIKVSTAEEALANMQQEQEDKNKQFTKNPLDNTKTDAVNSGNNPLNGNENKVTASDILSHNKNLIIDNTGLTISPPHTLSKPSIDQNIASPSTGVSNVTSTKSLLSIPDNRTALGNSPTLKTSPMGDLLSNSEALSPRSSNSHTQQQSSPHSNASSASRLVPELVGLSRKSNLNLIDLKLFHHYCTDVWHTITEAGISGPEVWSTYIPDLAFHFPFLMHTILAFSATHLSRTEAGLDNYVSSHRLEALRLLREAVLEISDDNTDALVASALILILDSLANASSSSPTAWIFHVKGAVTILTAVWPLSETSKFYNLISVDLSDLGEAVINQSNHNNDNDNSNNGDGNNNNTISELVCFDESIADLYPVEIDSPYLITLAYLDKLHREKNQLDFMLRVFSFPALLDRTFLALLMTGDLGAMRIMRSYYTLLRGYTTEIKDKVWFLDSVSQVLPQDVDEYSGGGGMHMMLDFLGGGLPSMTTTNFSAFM
# Assay: PBM E-score (8-mer binding enrichment) (E-score (-0.5 to 0.5)); higher = stronger / more preferred TF binding; most listed sequences are background and not binding sites
# Conditions: protein concentration: 200 nM; construct: GST-full length
# In short: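 GST-tagged yeast TFs (full-length or DNA-binding domain) were made by PURExpress in vitro transcription/translation and applied at about 100-200 nM to universal all-10-mer Agilent arrays. The arrays were made double-stranded by primer extension, on fresh or once-stripped slides. Bound protein was detected with fluorescent anti-GST, and scans were normalised with masliner. Each ungapped eight-base word, pooled with its reverse complement, received an E-score (modified Wilcoxon-Mann-Whitney statistic) from the Universal PBM Analysis Suite.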
row,Sequence,PBM E-score
1,CCGGGGAC,-0.169
2,ACAGGAAA,0.0919
3,ACCTCGAA,0.0834
4,ACATGATA,0.082
5,AAGGTGTG,-0.266
6,GGGCTTAC,-0.0954
7,CCCCTCAA,-0.166
8,ACAGGGCT,-0.24
9,CTACGTCC,-0.0539
10,GTACCCCA,0.0319
11,ACATTACC,-0.265
12,ACGTAGCC,0.0335
13,ATTTAAGA,-0.124
14,AACCACTC,0.0667
15,AGTAACCA,-0.125
16,CGAGCGAC,0.264
17,AAGCATCT,-0.0318
18,CCCTATCA,-0.344
19,ACCTATGA,-0.146
20,ACAATTGT,0.00386
21,AGAGCTAT,-0.199
22,ACCGGAAG,0.139
23,CCTACTGC,-0.323
24,CATCCCTA,-0.231
25,GTCTACAC,0.0872

row,Sequence,PBM E-score
1,AACTAACA,0.217
2,AATATCCG,0.219
3,GTCAGTAA,0.0146
4,ACGAGAAT,0.385
5,CAGTATTA,0.0438
6,AATTGACC,0.164
7,CTATCCCC,-0.209
8,CGCACTAG,-0.0642
9,CGCTCTAG,-0.132
10,AGGTTCCC,-0.0502
11,CAGGACGA,-0.283
12,AAACTGCA,-0.123
13,CAACCTAC,-0.23
14,AAGTAGGG,-0.178
15,AACTTTTC,-0.0753
16,AGGGCCGG,-0.316
17,AACTGGGC,-0.0689
18,AACATCCC,-0.151
19,GGGACGCA,-0.319
20,TGCTGGAA,-0.0991
21,GGCCGAGA,0.0114
22,ACGCCAAC,0.0646
23,ACCTTGCC,-0.195
24,GTTACTGA,0.133
25,CAACACAG,-0.098

row,Sequence,PBM E-score
1,GGCGTTGA,-0.126
2,AGAACACG,-0.00539
3,AACGCGTA,0.187
4,CGATTTAG,-0.00961
5,GGCACTAC,-0.0802
6,AAGTCGGT,0.0368
7,GTTCGTTA,0.356
8,GCGCTAAA,-0.0453
9,CGGTTGAG,0.167
10,GAGTCGCC,-0.0892
11,GGTACTGA,-0.0769
12,ATGTGCGG,-0.121
13,ACTATTCC,-0.104
14,CGAGTAAA,0.135
15,GGGTAACC,-0.079
16,AAATATTC,0.0894
17,CCCTTGGC,-0.392
18,GTCTGGGA,0.0462
19,AAATAGAA,0.0389
20,CGCGTTTC,0.0578
21,GATATTAC,0.244
22,AGCGGTGC,0.0264
23,CTAGGCTA,-0.33
24,AGCGGCAC,-0.14
25,AATCGTAT,0.427

row,Sequence,PBM E-score
1,CATGCAGA,-0.112
2,AGGTGTAG,-0.171
3,GTGATGAA,-0.0964
4,GACCGGCA,-0.122
5,ACCTACAC,-0.235
6,TCCCAAGA,-0.133
7,GTAATGCA,-0.171
8,CGAACGGA,0.24
9,CACATGAC,-0.187
10,AATAATGT,-0.108
11,AAAAGCTG,-0.0786
12,ACAAACAT,-0.0482
13,GTAACGCA,0.102
14,CCAGAGTC,-0.149
15,ATTCAGTA,0.0834
16,ACACGGGT,-0.0477
17,CCAGCTAA,-0.101
18,ATGTCTTA,-0.0321
19,GAGTACAA,0.0511
20,ATAGTGAA,-0.118
21,CGGACAAC,0.12
22,CCCGAGCA,0.093
23,CCAAGTGC,-0.121
24,GACCCGGA,-0.17
25,CATACCCG,-0.0365

row,Sequence,PBM E-score
1,GACATGGC,-0.0518
2,GGAATCAA,-0.114
3,ACACGCCC,-0.102
4,TGAGTGCA,-0.0807
5,AAGAAGGA,-0.241
6,GAGTCAAC,-0.0861
7,AAGGATAT,-0.0788
8,AATTTTTA,0.0432
9,AACACCCG,0.0252
10,AATTAGGA,-0.0287
11,CCCGCAAG,-0.192
12,ACACCGCA,-0.0151
13,ATAAGTAC,0.161
14,ACAGAGGC,0.112
15,CCAAGGCG,-0.0227
16,ATTAAGGG,-0.291
17,CGTTTTTC,0.107
18,CCGCAGAC,-0.069
19,GACACCGC,0.0157
20,ACTAAATC,-0.025
21,AAAGATGA,-0.123
22,CAGTATAG,0.0643
23,CACACGGC,-0.0467
24,AAGATGAC,-0.202
25,CAATCACC,-0.00125

row,Sequence,PBM E-score
1,GGAAGTGA,0.0669
2,AGATTGAG,-0.076
3,CAAAACGC,-0.102
4,CGCGCGCC,0.119
5,CGTGTTTA,0.118
6,CGCGGACA,-0.0878
7,AACGGGGA,0.29
8,GCCAAGGA,-0.213
9,CGCTTTAC,0.229
10,GCCTGCGA,-0.237
11,GCAATTGA,-0.101
12,AATGAACT,0.0961
13,TCATCCAA,-0.00678
14,CTGTTAGC,-0.0802
15,GCGGGAGA,-0.0617
16,CAAACGAC,0.442
17,AAAGCGTG,-0.0715
18,AGGGCGAA,-0.15
19,CCAGCCCA,-0.293
20,CCTGAGGC,-0.211
21,GGGAAACA,0.00879
22,CCGAACGA,0.357
23,AGCCCGCG,0.0591
24,AATGTATG,-0.0417
25,ATTTTTTA,0.121

row,Sequence,PBM E-score
1,GATCGCCA,-0.06
2,TGTCGGAA,0.105
3,CATCCATG,-0.12
4,GACCGGAA,0.0512
5,CGGAATAC,0.241
6,ACACTCTA,0.0288
7,CATCCTAG,-0.125
8,AGGAAGAG,-0.186
9,AGGTCTCA,-0.23
10,ATCGTACA,0.465
11,ACCCGTCT,-0.0476
12,TACTAAAA,0.213
13,TCCTCACA,-0.197
14,ACGGAGAG,0.125
15,GAGAGTGA,0.00324
16,AAATGTCA,-0.107
17,GACACCTC,0.148
18,CACTCTTA,-0.121
19,ACTCCAGA,-0.0461
20,GCCCGGGC,-0.181
21,GCGTGTCA,-0.17
22,CTTGAAAC,0.0867
